Results reported in PubChem BioAssay (Tox21).
“And” between values parts separate entries of the source, which are not always exact repeats. Identical values can stand only once. Inconclusive means that the source gave no clear call. Such entries were picked first, then a sample of the others. Where the call is inconclusive, the potency comes from a doubtful curve fit. A structure can be active in one record and inactive in another. The source made the active and inactive calls. Calls come from the whole dose curve; as a rule, active = well fitted curve in the direction sought with a large enough effect in the repeat runs; inconclusive = weak or mixed curves; inactive = no such curve, though single readings can be large; an effect the other way counts as inactive or inconclusive.

molecular target: Voltage-gated inwardly rectifying potassium channel KCNH2 (Homo sapiens) (UniProt Q12809); assay: Human Ether-a-go-go-Related Gene (hERG) channel small molecule antagonists: fluorescence cell-based qHTS assay (AID 1671200); settings: hERG-U2OS cells, FluxOR thallium flux fluorescence; series mostly up to 76.8 µM; activity change, negative = inhibition: at the top concentration;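 for activity change, negative = inhibition: hERG-expressing U2OS cells given a thallium stimulus after FluxOR II dye loading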
Chain of UniProt Q12809 (Q12809 whole entry, looked up): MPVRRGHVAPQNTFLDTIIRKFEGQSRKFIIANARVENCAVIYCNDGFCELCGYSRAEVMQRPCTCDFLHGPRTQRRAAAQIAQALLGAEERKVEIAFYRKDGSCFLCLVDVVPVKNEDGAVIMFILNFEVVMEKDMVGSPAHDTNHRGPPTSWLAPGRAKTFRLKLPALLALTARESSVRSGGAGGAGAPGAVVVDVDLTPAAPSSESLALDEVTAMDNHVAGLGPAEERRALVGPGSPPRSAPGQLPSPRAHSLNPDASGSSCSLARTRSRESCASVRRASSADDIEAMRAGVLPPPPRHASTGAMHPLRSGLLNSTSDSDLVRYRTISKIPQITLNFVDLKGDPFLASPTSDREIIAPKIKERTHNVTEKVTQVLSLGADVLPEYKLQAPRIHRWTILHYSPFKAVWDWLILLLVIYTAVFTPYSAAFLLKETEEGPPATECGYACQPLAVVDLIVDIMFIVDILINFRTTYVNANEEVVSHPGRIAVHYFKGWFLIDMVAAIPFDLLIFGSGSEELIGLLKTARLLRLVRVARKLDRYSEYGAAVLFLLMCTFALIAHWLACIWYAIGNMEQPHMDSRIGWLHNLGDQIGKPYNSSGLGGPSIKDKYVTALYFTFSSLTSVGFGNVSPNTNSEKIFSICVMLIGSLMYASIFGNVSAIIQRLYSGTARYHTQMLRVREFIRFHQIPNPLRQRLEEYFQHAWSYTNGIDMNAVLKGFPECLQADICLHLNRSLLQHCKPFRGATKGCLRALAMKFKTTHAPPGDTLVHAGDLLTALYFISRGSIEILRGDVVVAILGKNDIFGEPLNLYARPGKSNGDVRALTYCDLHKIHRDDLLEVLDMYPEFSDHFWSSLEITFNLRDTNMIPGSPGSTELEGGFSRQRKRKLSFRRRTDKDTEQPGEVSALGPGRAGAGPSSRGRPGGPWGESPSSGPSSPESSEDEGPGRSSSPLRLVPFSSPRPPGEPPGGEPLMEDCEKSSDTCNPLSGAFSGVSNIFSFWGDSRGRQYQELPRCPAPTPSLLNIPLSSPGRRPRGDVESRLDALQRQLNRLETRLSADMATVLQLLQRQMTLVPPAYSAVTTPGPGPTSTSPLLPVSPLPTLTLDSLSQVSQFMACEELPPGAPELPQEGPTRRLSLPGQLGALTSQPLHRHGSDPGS
Procedure, shortened: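 First, 1000 cells per well are seeded and cultured overnight at 37 C. Next, FluxOR II dye is loaded for 1 h at room temperature, protected from light. After 10 more minutes, stimulus is added and fluorescence is read.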
% is set by controls: 0 for no effect and ±100 for the full control effect; potency is the fitted concentration of half-maximal effect; tags give direction and shape of the fitted curve.
Note: nearly all actives have a fitted effect of over 50% in size.

| SMILES | Potency |
| --- | --- |
| CC(CN1c2ccccc2Sc2ccccc21)N(C)C (stereo unspecified) | active: 22.1 µM and active: 21.9 µM and active: 21.3 µM |
| Nc1ccc(Nc2ccccc2)cc1 | inconclusive: 30.6 µM [inhibitor, partial curve, poor fit] |
| CCCN(CCC)c1c([N+](=O)[O-])cc(C(F)(F)F)c(N)c1[N+](=O)[O-] | inconclusive: 43.5 µM [inhibitor, partial curve] |
| CCCCCCCOC(=O)c1ccc(O)cc1 | inconclusive: 49 µM [inhibitor, partial curve] and inconclusive: 54.9 µM [inhibitor, single point] |
| CCCCCCCCCCCCCCCCCCNC(=O)OC1CCN(C(=O)OC[C@H](COC(=O)N(Cc2cccc[n+]2CC)C(=O)c2ccccc2OC)OC)CC1 | inconclusive: 26.8 µM [inhibitor, single point] |
| CCCCC(CC)COC(=O)/C=C/c1ccc(OC)cc1 (stereo unspecified) | inconclusive: 54.7 µM [inhibitor, single point] |
| CCCCCCCCCCCCCCCC[N+](C)(C)Cc1ccccc1 | active: 1.79 µM and active: 4.98 µM and active: 6.74 µM |
| CC[C@]12CCCN3CCc4c(n(c5ccccc45)[C@@](O)(C(=O)OC)C1)[C@@H]32 | active: 692 nM and active: 1.69 µM |
| c1ccc2c(c1)CCc1ccccc1N2 | inconclusive: 16.9 µM [inhibitor, partial curve, poor fit] |
| COc1ccc(CN2CCN(C(c3ccc(F)cc3)c3ccc(F)cc3)CC2)c(OC)c1OC | active: 0.674 µM |
| CCCCCCCCOC(=O)c1ccc(O)cc1 | inconclusive: 54.8 µM [inhibitor, partial curve, poor fit] |
| c1ccc(-c2ccc(C(c3ccccc3)n3ccnc3)cc2)cc1 (stereo unspecified) | active: 7.56 µM |
| CCCCCCCCCCCCc1ccccc1O | inconclusive: 38.4 µM [inhibitor, partial curve] |
| c1ccc(Sc2ccccc2)cc1 | inconclusive: 34.7 µM [inhibitor, partial curve] |
| N/C(=N\N=C\c1ccc(Cl)cc1)N/N=C/c1ccc(Cl)cc1 | active: 2.39 µM |
| CCCCOCCOCCOCc1cc2c(cc1CCC)OCO2 | inconclusive: 36.1 µM [inhibitor, partial curve] and inconclusive: 23.9 µM [inhibitor, partial curve, poor fit] |
| CCCCCCOc1cc(C)c(O)c(C)c1C | inconclusive: 31.3 µM [inhibitor, partial curve] |
| CCc1cc(Cc2cc(CC)cc(C(C)(C)C)c2O)c(O)c(C(C)(C)C)c1 | inconclusive: 24.5 µM [inhibitor, partial curve] |
| Nc1ccc(S(=O)(=O)Nc2cnc3ccccc3n2)cc1 | inactive |
| O=C(c1ccc(OCCN2CCCCC2)cc1)c1c(-c2ccc(O)cc2)sc2cc(O)ccc12 | inconclusive: 23.9 µM [inhibitor, partial curve] |
| CC(C)(C)c1ccc(O)c(C(C)(C)C)c1 | inconclusive: 48.8 µM [inhibitor] and inconclusive: 24.5 µM [inhibitor, partial curve] |

molecular target: Cytochrome P450 3A4 (Homo sapiens) (UniProt P08684); assay: Cytochrome P450 Family 3 Subfamily A Member 4 (CYP3A4) small molecule antagonists: luciferase reporter qHTS assay (AID 1671201); settings: P450-Glo CYP3A4 enzyme, luciferin luminescence, 1 h; series mostly up to 115 µM; activity change, negative = inhibition: at the top concentration
Chain of UniProt P08684 (P08684 whole entry, looked up): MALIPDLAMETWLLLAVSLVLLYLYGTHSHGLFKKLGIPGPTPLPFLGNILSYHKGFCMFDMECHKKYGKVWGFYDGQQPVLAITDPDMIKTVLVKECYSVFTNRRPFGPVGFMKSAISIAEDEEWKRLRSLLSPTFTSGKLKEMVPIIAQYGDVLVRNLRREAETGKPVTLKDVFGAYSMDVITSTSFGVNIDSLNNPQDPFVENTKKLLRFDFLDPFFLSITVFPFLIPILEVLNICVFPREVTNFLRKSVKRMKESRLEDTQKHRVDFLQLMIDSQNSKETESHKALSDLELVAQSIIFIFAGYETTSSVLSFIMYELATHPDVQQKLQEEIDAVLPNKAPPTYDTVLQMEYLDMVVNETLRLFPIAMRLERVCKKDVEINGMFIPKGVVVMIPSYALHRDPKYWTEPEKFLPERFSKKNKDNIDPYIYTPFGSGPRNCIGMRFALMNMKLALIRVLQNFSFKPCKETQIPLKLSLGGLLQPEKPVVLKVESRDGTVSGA
Procedure, shortened: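 Enzyme and proluciferin substrate are mixed with test chemicals for 10 min, then NADPH regeneration system drives turnover for 1 h at room temperature. A detection reagent halts the reaction; luminescence after 20 min gives relative activity.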

| SMILES | Potency | activity change, negative = inhibition |
| --- | --- | --- |
| C/C=C/C(=O)Oc1c(CCCCCC(C)C)cc([N+](=O)[O-])cc1[N+](=O)[O-] | inconclusive: 15.9 µM [inhibitor, full curve] |  |
| CCCCCCCOC(=O)c1ccc(O)cc1 | inconclusive: 89.4 µM [inhibitor] and inconclusive: 89.4 µM [inhibitor, partial curve, poor fit] |  |
| Nc1cc(Cl)c([N+](=O)[O-])cc1O | inconclusive: 39.6 µM [inhibitor, partial curve] |  |
| Oc1cc2ccccc2c2ccccc12 | active: 6.33 µM |  |
| O=C(Nc1ccccc1SSc1ccccc1NC(=O)c1ccccc1)c1ccccc1 | active: 2.01 µM and active: 5.03 µM |  |
| Cc1oc(-c2ccccc2)nc1CCOc1ccc(C[C@H](Nc2ccccc2C(=O)c2ccccc2)C(=O)O)cc1 | inconclusive: 89.4 µM [inhibitor, single point] |  |
| CC(C)c1cccc(C(C)C)c1N1C(=O)c2ccc(O)cc2C1=O | inconclusive: 28.3 µM [inhibitor, partial curve] |  |
| CCCCCCCCCC[N+](C)(CCCCCCCCCC)CCC[Si](OC)(OC)OC | active: 28.3 µM |  |
| CCCCCCCCOC(=O)c1ccc(O)cc1 | inconclusive: 79.4 µM [inhibitor, single point] and inconclusive: 89.4 µM [inhibitor, single point] |  |
| CC1=C(/C=C/C(C)=C/C=C/C(C)=C\C(=O)O)C(C)(C)CCC1 | active: 22.5 µM |  |
| CCCOc1sc(C(=O)N2CCC(c3cc(CN)ccc3F)CC2)c(C)c1Br | active: 10.3 µM |  |
| Nc1ccc2c(c1)C(=O)c1ccccc1C2=O | active: 1.24 µM and active: 1.78 µM |  |
| Oc1ccc2cc(SSc3ccc4cc(O)ccc4c3)ccc2c1 | active: 14.2 µM and active: 31.7 µM |  |
| COc1cc(-c2nc(NC(=O)c3cc4cc(C)cc(C)c4n3CC(=O)O)sc2CCC2CCCCC2)c(OC)cc1Cl | inconclusive: 46.1 µM [inhibitor, partial curve, poor fit] |  |
| CC(C)(c1cc(Br)c(O)c(Br)c1)c1cc(Br)c(O)c(Br)c1 | inconclusive: 89.1 µM [inhibitor] |  |
| CCCCCCCCCCCCCC[P+](CCCC)(CCCC)CCCC | inconclusive: 99.8 µM [inhibitor, single point] |  |
| O=C1C=CC(=O)N1c1ccccc1 | inconclusive: 39.9 µM [inhibitor, partial curve] |  |
| CN[C@H]1CC[C@@H](c2ccc(Cl)c(Cl)c2)c2ccc(S(N)(=O)=O)cc21 | active: 28.3 µM |  |
| CCC(C)(C)c1cc(O)c(C(C)(C)CC)cc1O |  | inactive: -7.49% |
| CC(C)(C)c1ccc(O)c(C(C)(C)C)c1 | inconclusive: 25.1 µM [inhibitor, full curve] |  |
